These results are taken from the RNAGym collection of RNA variant scans (doi:10.1101/gad.245936.114).

B1: tRNA (parent)
chain: CUCUCGGUAGCCAAGUUGGUUUAAGGCGCAAGACUUUAAUUUAUCACUACGAAAUCUUGAGAUCGGGCGUUCGACUCGCCCCCGGGAGAUUUUUUCCUCGAGCAA

Variants at the floor of the assay are shown more often than the library holds them.

In the data set the parent is B1. The data set is described as follows: nonsense suppression (GFP-seq) (ratio to wild type); higher = more function; SUP4oc tRNA, yeast GFP reporter sort-seq. An outline of the steps: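 To measure nonsense suppression, tRNA variants from a library carrying ~3% random mutations were integrated into the yeast genome alongside RFP and a GFP ochre reporter under galactose control. Growth took place in raffinose/galactose medium supplemented with 80 mg/L adenine, followed by sorting into GFP/RFP bins and Illumina sequencing of each bin (phred ≥30). For each variant with ≥100 reads and ≥30 cells, the bin median GFP/RFP values were weighted by its estimated cell share per bin and referenced to the unmutated parent tRNA.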
Consider CUCUCGGUAGCCAAGUUGGAUUAAGGCGCAAGACUUUAAUUUAUCACUACGAAAUCUUGCGAUCGGGCGUUCGACUCACACCCGGGAGAUUUUUUCCUCGAGCAA, for which the nonsense suppression was not above 0.026.
For CUCUCGGUAGACAAGUUGGCUUAAGGCGCAAGACUUUAAUUUAUCACUACGAAAUCUUGAGAUCGGGCGUUCGACUCGCCCCCGGGAGAUUUUUUCCUCGAGCAA the value was not above 0.026; for CUGUCGGUAGCCAAGUUGGUUUAAGGCGCAAGACUUUAAUUUAUCACUACGAAAUCUUGAGAUAGGGCGUUCGACUCGCCCCCGGGAGAUUUUUUCCUCGAGCAA, not above 0.026; for CUCUCGGUAGCCAAGUUGGUUUAAGGCGCAAGACUUUAAUUUAUCACUACGAAAUCUUGAGAUCGGGAGUUCGACUCGCCCCCGCGAGAUUUUUUCCUCGAGCAA, not above 0.026.
Consider CUCUCGGUAGCCAAGUUGGUUUAAGGCGCAAGACUUUAAUUUAUCACUACGAAAUCUUGAGAUCGGGCGUUAGACUCGCCCCCGGGAGAUUUUUUCCUCGAGCAA, for which the nonsense suppression was not above 0.026.
For CUCUCGGUAGGCAAGUUGGUUUAAGGCGCAAGACUUUAAUUUAUCACUACGAAAUCCCGACAUCGGGCGUUCGACUCGCCCCCGGAUGAUUUUUUCCUCGAGCAA the value was not above 0.026; for CUCUCGGUAGCCAAGUUGGUUUCAGGCGCAAGACUUUAAUUUAUCACUACGAAAUCUUGAGAUCGGGCGUUCGACGCGCCCCCGGGAGUUUUUUUCCUCGAGCAA, not above 0.026; for CUCUCGGUAGCCAAGUUCGUUUAAGGCGCAAGACUUUAAUUUAUCACUACGAAAUCUUGCGAUCGGGCGUAUGACUCGCCCCCGGGAGAUUUUUUCCUCGAGCAA, not above 0.026.
For CUCUCGGUUGCCAAGUUGGUUUAAGGCGCAAGACUUUAAUUUAUCACUACGAAAUCUUGAUAUCGGGCGUUCCACUCGCCCCCGGGAGAUUUUUUCCUCGAGCAA the value was not above 0.026; for CCCUCGGUAGCCAAGUUGGUUUAGGGCGCAGGACUUUAAUUUAUCACUACGAAAUCUUGAGAACGGGCGUUCGACUCGCCCCCGGGAGAUUUUUUCCUCGAGCAA, not above 0.026; for CUCUCGGUAGCCAAGUUGGUGUAAGGCGCAAGACUUUAAUUUAUCACUACGAAACCUUGAGAUCGGGCGUUCGACUCGCCCCCGGGAGAUUUUUUCCUCGAGCAA, 0.208.
In the case of CGCUCGGUAGCCAAGUCGGUUUAAGGUGCAAGACUUUAAUUUAUCACUACGAAAUCUUGAGAUCGGGCGUUCGACUAGCCCCCGGGAGAUUUUUUCCUCGAGCAA, the nonsense suppression was not above 0.026.
Take CUCUCGGUAGGCAAGUUGGUUUAAGGCGCAAGUCUUUAAUUUAUCACUACGAAAUCUUGAGAUCGGGCGUUCGACUCGUCCCCGGGAGAUUUUUUCCUCGAGCAA: the nonsense suppression is not above 0.026.
For AUCUCGGUAGCCCAGUUGGUUUAAGGCGCAAGACUUUAAUUUAUCACUACGAAAUCUUGAGAUCGGGCGUUCGACUCGCCCCUGGGAGAUUUUUUCCUCGAGCAA the value was not above 0.026; for CUCUCGGUAGCCAAGUUGGUUUAAGGCGCAAGACUUUAAUUUAUCACUACGAAAUCUUGAGAUCGGGCAUUCGACACGCCCCCGGGAGAUUUUUUCCUCGAGCAA, not above 0.026.
For the variant CUCUCGGCAGCCAAGUUGGUUUAAGGCGCAAGUCUUUAAUUUAUCACUACGAAAUCGUUAGAUCGUGCGUUCGACACGCCCCCGGCAGAUUUUUUCCUCGAGCAA, the nonsense suppression was not above 0.026.
Consider CUCUCGGUAGCCAAGUUGGUUAAAGGCCCGAGACUUUAAUUUAUCACUACGAAAUCUAGAGAUCGGGCGUUCGCCUCGCCCCCGGGAGAUUUUUUCCUCGAGCAA, for which the nonsense suppression was not above 0.026.
For CUCUCGGUAGCCAAGUUGGUUUAAGACGCAAGACUUUAAUUUAUCACUACGAAAUCUUGAGAUCGGGCGUUCGACUCGCCCCCGGGAGGUUUUUUCCUCGAGCAA the value was not above 0.026; for CUCUCGGUAGCCAAGUUGGUUUAAGGCGCAAGACUUUAAUUUAUCACUACGAAAUCUUGAGAUCGGGCGUUCGUCUCGCCCCCGGGAAAUUUUUUCCUCGAGCAA, not above 0.026.
For CUCUCGGUAGCCAAGUUGGUUUAAGGCGCAAGACUUUAAUUUAUCACUACGAAAUCUUGAGAUCGGGCGUUCAACUCGCCCCGGGGAGAUUUUUUCCUCGAGCAA the value was not above 0.026; for CUCUCGGUAGCCAAGUUGGAUCAAGGCGCAAGUCUUUAAUUUAUCACUACGAAAUCUUGAGAUCGGGCGUUCGACUCGCCCCCGGGAGAUUUUUUCCUCGAGCAA, not above 0.026; for CUAUCGGUAGCCAAGUUGGUUUAAGGCGCAAGACUUUAAUUUAUCACUACGAAAUCUUCAGAUCGGGUGUUCGACUCGCCCCCGGGAGAUUUUUUCCUCGAGCAA, not above 0.026.
For CUCUCGGUAGUCAAGUUGGUUUAAGGCGCAAGACUUUAAUUUAUCACUACGAAAUCUAGAGAUCGGGCGUUCGACUCGCCCCCGGGAGAUUUUUUCCUCGAGCAA the value was not above 0.026; for CUCUCGGUAGCCAAGUUGGUUUAAGGCGCUAGUCUUUAAUUUAUCACUACGAAAUCUUGAGAUCGGGCGUUCGACGCGCCCCCGGGAGAUUUUUUCCUCGAGCAA, not above 0.026; for CUCUCGGUAGCCAAGUUGGUAGAUGGCGUAAGACUUUAAUUUAUCACUACGAAAUCUUGAGAUCGGGCGUUCGACACGCCCCCGGGAGAUUUUUUCCUCGAGCAA, not above 0.026.
Turning to CUCUCGGUAGCCAAGGUGGUUUAAGGUGCAAGUCAUUAAUUUAUCACUACGAAAGCUUGAGAUCGGGCGUUCGACUCGCCCCCGGGAGAUUUUUUCCUCGAGCAA, the nonsense suppression was not above 0.026.
With CUCUCGGUAGCCAAGUUGGUUUAAGGCGCAAGACUUUAAUUUAUCACUACGAAAUCUUGAGAUCGGGCGUUCGACUCGCCCCUUGGAGAUUUUUUCCUCGAGCAA, the nonsense suppression was found to be 0.027.
